Measurements from PMC7819943, “Rice protein-binding microarrays: a tool to detect cis-acting elements near promoter regions in rice”.
The list shows a part of the results.

Target: T1, OsWOX13 (Oryza sativa, UniProt Q5QMM3 1-267)
T1 sequence: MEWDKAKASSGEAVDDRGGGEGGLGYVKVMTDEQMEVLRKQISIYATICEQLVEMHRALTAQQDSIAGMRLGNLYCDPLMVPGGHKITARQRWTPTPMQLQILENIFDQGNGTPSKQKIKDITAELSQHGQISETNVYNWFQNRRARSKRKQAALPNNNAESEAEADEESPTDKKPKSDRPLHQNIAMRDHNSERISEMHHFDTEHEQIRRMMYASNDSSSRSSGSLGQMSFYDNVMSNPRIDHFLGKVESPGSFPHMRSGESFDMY
Test: protein-binding microarray (RPBM); PBS, 2% BSA, 51.3 ng/ul salmon testes DNA, 50 uM zinc acetate, 200 nM TF, 25 C, 1 h; high values mean tight binding
Details: protein: recombinant; tags: N-terminal polyhistidine and DsRed monomer fusion (pET32a); label: CyDye5-dUTP incorporated in the synthesized complementary strand; 3' TTTTT single-stranded linker to array surface; dsDNA, one strand shown
Summary of the method: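 Transcription factors, each fused N-terminally to a polyhistidine tag and DsRed, were expressed in E. coli BL21-CodonPlus and purified on Ni–NTA. A custom Agilent array was made double-stranded by primer extension with Cy5-dUTP and blocked with 2% BSA. It was incubated with 200 nM protein in PBS, 2% BSA, salmon testes DNA and 50 µM zinc acetate at 25 °C for 1 h, then washed. The binding signal is per-feature fluorescence intensity (arbitrary units) read on an Axon 4000B scanner.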

Row | Sequence | binding signal
1 | AGAGAGTCCCAATAATTAAGTGTTAATTATTATAAAATTTCGGAGTCACCTAGTGCAG | 13600 fluorescence intensity (a.u.)
2 | TTCTAACACCAAAATTAATTTCATTATTAGTAATATAGTACGGAGTCACCTAGTGCAG | 5440 fluorescence intensity (a.u.)
3 | ATACAGATTATAAATAATTTGGAGGCTTAGAAATTTCCAGCGGAGTCACCTAGTGCAG | 12200 fluorescence intensity (a.u.)
4 | TTTAAAATTTAAAACTTAAATTGAAAGTTTTCAAATCTAACGGAGTCACCTAGTGCAG | 19700 fluorescence intensity (a.u.)
5 | CTAGTGTCAATCAATGAATCAAGCGGCCACCAACCTACCTCGGAGTCACCTAGTGCAG | 34400 fluorescence intensity (a.u.)
6 | ACTTAATTATTGTTATGATTCATTCATGCATAAAGCGGTGCGGAGTCACCTAGTGCAG | 55700 fluorescence intensity (a.u.)
7 | ACAAGATTGGCTATATGGGCATCGATAAATGTAAATATTACGGAGTCACCTAGTGCAG | 19300 fluorescence intensity (a.u.)
8 | CATGTAATTATCCACATCCCTGGAAGATAAGTACTACTACCGGAGTCACCTAGTGCAG | 10700 fluorescence intensity (a.u.)
9 | TCTCTTTGATTATCTCACTATCTAGTTGGGTGCACAAACACGGAGTCACCTAGTGCAG | 13200 fluorescence intensity (a.u.)
10 | AATATGATTGCCTTAGTGTTAGGATCAGATCTTGATGTAACGGAGTCACCTAGTGCAG | 31900 fluorescence intensity (a.u.)
11 | GTATAGTAACAAATTTGTGATAGATGCAATGAGAGACCGGCGGAGTCACCTAGTGCAG | 12400 fluorescence intensity (a.u.)
12 | AATTGATTTACAATACTTCCTCCGTTTCACAATATAAGTGCGGAGTCACCTAGTGCAG | 24700 fluorescence intensity (a.u.)
13 | TAATTAATCGATGATTAGTCTATGTAATGCTACAGTAAACCGGAGTCACCTAGTGCAG | 21400 fluorescence intensity (a.u.)
14 | ATACGATTATATTAATCTCTCTAAACGTCGTGGGAGTGCTCGGAGTCACCTAGTGCAG | 3290 fluorescence intensity (a.u.)
15 | GTTTGGGATGTCGCGGGGATTTAGGGGCGGTGGGTGGTTTCGGAGTCACCTAGTGCAG | 10900 fluorescence intensity (a.u.)
16 | CAGCTTAAATAAATTGATAAACATGAATTAACTCATGCTTCGGAGTCACCTAGTGCAG | 35800 fluorescence intensity (a.u.)
17 | CGGAGAAAATAGACAAGTTAAGAATCAACATGGAAAATGCCGGAGTCACCTAGTGCAG | 3420 fluorescence intensity (a.u.)
18 | ATCCATGTGATTTTGTCTAACTTGGATCATAATAGATAGACGGAGTCACCTAGTGCAG | 5830 fluorescence intensity (a.u.)
19 | TTGATTTTCAATCTAATAAACTTATTTTACTTTCTTTCTTCGGAGTCACCTAGTGCAG | 7540 fluorescence intensity (a.u.)
20 | TCCCTGACAGGTGGGCCACCTTTGGGCTTTCCCGTGGGCGCGGAGTCACCTAGTGCAG | 6150 fluorescence intensity (a.u.)
21 | CTTTTGTCCTTTATGATTGGTCTATTGAGATGTCTGGGTCCGGAGTCACCTAGTGCAG | 10900 fluorescence intensity (a.u.)

Row | Sequence | binding signal
22 | TTTTAATTGAAATGCCACCTAAGCGCCACATCAACACCACCGGAGTCACCTAGTGCAG | 35700 fluorescence intensity (a.u.)
23 | CCAAACCCACCTCGCTAATTAGGGTTCTTCTTCCTCCTCCCGGAGTCACCTAGTGCAG | 4890 fluorescence intensity (a.u.)
24 | TTTATTTGATTTATGCAATCACATGTGAAATGTTACTGCACGGAGTCACCTAGTGCAG | 26400 fluorescence intensity (a.u.)
25 | TTCTTGAATGATTTGCTAATTGCTACATGTATCCTCTTTCCGGAGTCACCTAGTGCAG | 20200 fluorescence intensity (a.u.)
26 | AGGGGAGTTGATTACAGGGAGTTACAGGGTTCCAAGCTTTCGGAGTCACCTAGTGCAG | 6890 fluorescence intensity (a.u.)
27 | TTTACTCAATTGAGGTTAATTAATTGCTAATGATAGTAATCGGAGTCACCTAGTGCAG | 20900 fluorescence intensity (a.u.)
28 | TCCTAATCATTATAATTCCAAACTAAGTTCGCTTTGCCCACGGAGTCACCTAGTGCAG | 15800 fluorescence intensity (a.u.)
29 | GTTCCTTCATTTTAGACGTTCAATCAACTTTTGAATTCTACGGAGTCACCTAGTGCAG | 4720 fluorescence intensity (a.u.)
30 | ACTCACACACAGTAATTAACAGGGATATTGGGATCACAAGCGGAGTCACCTAGTGCAG | 7640 fluorescence intensity (a.u.)
31 | ATAATTATACGAGTATACAAATGACGAATTAAGTATTTGTCGGAGTCACCTAGTGCAG | 3660 fluorescence intensity (a.u.)
32 | TAAAAGACAAATTTAATTAAAACAGTTTCCTAAGACATTCCGGAGTCACCTAGTGCAG | 5710 fluorescence intensity (a.u.)
33 | CTGTTATGATTCTAATTTTATAAAATTCGAGAGACATGGTCGGAGTCACCTAGTGCAG | 6330 fluorescence intensity (a.u.)
34 | ATGATGATGATCCTGATCCTGATCTTCCTCCTCGATCGACCGGAGTCACCTAGTGCAG | 3400 fluorescence intensity (a.u.)
35 | TTCTACATTCAATCAATCATGCACAGGAGTAGGGTATTACCGGAGTCACCTAGTGCAG | 16400 fluorescence intensity (a.u.)
36 | CCCTCCAATCCTACATGTTGATAGATGTAATCCCTACCGTCGGAGTCACCTAGTGCAG | 10800 fluorescence intensity (a.u.)
37 | CGCCCACAAATTGGACCGCATCTTCTCAAACTCTGCATTGCGGAGTCACCTAGTGCAG | 12100 fluorescence intensity (a.u.)
38 | TCAAAATTGAAATAATAACTAACCAAGTGACAGAAATATTCGGAGTCACCTAGTGCAG | 4280 fluorescence intensity (a.u.)
39 | TCATAATTTATGTTAATACAACATTTTGAAGTTCTGATTGCGGAGTCACCTAGTGCAG | 17400 fluorescence intensity (a.u.)
40 | ATTAAATGGAATTACTGATAGATGAGGTGTGCTGATAGAACGGAGTCACCTAGTGCAG | 26200 fluorescence intensity (a.u.)
41 | ATTGACTGGCATTCTTGGTGTTTCGTGGTCAGGAGTACGACGGAGTCACCTAGTGCAG | 21100 fluorescence intensity (a.u.)
42 | GGCTCAATTAGGAAATTACCCTCGCCATTTTGACGTAGTGCGGAGTCACCTAGTGCAG | 14300 fluorescence intensity (a.u.)
